# Assay results published in the supplement of paper PMC12217912.
# The other results are listed elsewhere or left out. Sequences were assembled here from the parent chain. Values near 0.05 are background.
# B1: TEV protease; numbered along this chain (parent)
# chain: MGESLFKGPRDYNPISSSICHLTNESDGHTTSLYGIGFGPFIITNKHLFRRNNGTLVVQSLHGVFKVKDTTTLQQHLVDGRDMIIIRMPKDFPPFPQKLKFREPQREERICLVTTNFQTKSMSSMVSDTSCTFPSGDGIFWKHWIQTKDGQCGSPLVSTRDGFIVGIHSASNFTNTNNYFTSVPKNFMELLTNQEAQQWVSGWRLNADSVLWGGHKVFMVKPEEPFQPVKEATQL
# Variants of: B1
# Assay: raw area under fraction-flipped curve 0-4 h after induction (AUC4h, not background-subtracted), DNA-recorder readout of cleavage of the substrate (dimensionless); higher = more cleavage of the substrate by the protease variant
# Conditions: temperature: 34 °C; time window: 0-4 h after rhamnose induction
# Description: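 In vivo DNA recorder in E. coli TOP10(DE3) ΔrhaA at 34 °C. Each TEVp single-site mutant (parent TEVp 0) is paired with a single-site variant of the 7-mer TEVs (canonical ENLYFQ|S). The substrate sits between flexible linkers in a Bxb1-sfGFP-TEVs-SsrA fusion, so cleavage stabilises Bxb1 and speeds flipping of a recombination array, read by NGS. The value is the raw area under the fraction-flipped curve over 0-4 h after rhamnose induction (AUC4h), with ≥20 reads per time point. It is not background-subtracted; inactive controls average about 0.047.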
# 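Note: Bxb1 expression induced with 0.2% (w/v) L-rhamnose at OD600 near 0.5, cultures sampled hourly, flipped fraction per protease–substrate barcode pair counted by paired-end Illumina sequencing.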
Variant,area with substrate ENLDFQS,area with substrate ENLFFQS,area with substrate ENLHFQS,area with substrate ENLKFQS,area with substrate ENLMFQS,area with substrate ENLNFQS,area with substrate ENLPFQS,area with substrate ENLRFQS,area with substrate ENLVFQS,area with substrate ENLGFQS
S171R,0.0688,0.0601,0.0768,0.0726,0.108,0.0315,0.0552,0.0717,0.115,
G166Y,0.0663,0.0487,,0.0538,,0.0343,0.0472,0.0418,,0.0608
G214L,0.0042,0.0622,0.0645,,,,,,0.057,
D137W,,0.085,,0.076,,0.0609,0.0818,0.0764,,0.0733
W199K,0.0594,0.0735,,,0.0597,0.0668,,0.0515,,
G213P,0.0696,,0.0383,,,0.0665,0.0567,,,
G213I,,0.0659,0.0469,0.0628,,,0.0573,,0.0693,0.0521
L205Q,0.0676,,,,,,,,,
L205C,0.0665,,0.0622,,,,0.0718,,0.0971,
T114S,,0.102,0.069,0.073,0.0754,0.0731,0.0563,,0.0508,
F180Y,,0.0864,0.0682,0.0752,,0.0659,0.0694,,0.0855,
Q194D,0.0683,0.0772,,,0.0389,,0.0431,0.0911,0.0733,
P225Y,,0.0947,0.0582,0.0659,0.0609,0.0752,,,,
V210A,,0.0797,,0.0615,,,,0.0753,,
K230R,0.071,,,0.0695,,0.0672,,0.0838,,
P134A,,0.129,,0.0814,0.0799,0.0732,0.0815,,,
P134M,,0.0728,0.062,,,,,,,
F163G,0.0577,,,0.0981,,,0.0988,0.0708,,
H215T,0.0528,,0.0558,0.0629,0.0653,,0.058,,,0.0556
I145A,,0.0926,,,0.0797,0.0794,0.0574,0.0934,,0.0807
F187S,0.056,0.0498,0.0466,0.067,0.0632,,,0.0679,0.0502,
F187V,,0.0901,0.0628,0.0519,0.0506,,0.0642,0.0516,,

Variant,area with substrate ENLDFQS,area with substrate ENLFFQS,area with substrate ENLHFQS,area with substrate ENLKFQS,area with substrate ENLMFQS,area with substrate ENLNFQS,area with substrate ENLPFQS,area with substrate ENLRFQS,area with substrate ENLVFQS,area with substrate ENLGFQS
M188H,,0.0689,0.112,0.0823,0.0862,0.0822,0.052,,0.0706,0.069
G35Y,,,,0.0467,,,0.03,0.0448,,
G35F,,0.0393,,,,,,,,0.0367
R109M,,0.113,,,,,,,,
L190K,0.0857,0.0754,,0.075,0.0808,0.0654,0.0326,0.0757,0.0749,0.0626
T181N,,0.0629,,,,,,,,
W203T,0.0667,0.0652,,0.0523,,0.0665,0.0671,0.0655,,0.0713
S201T,,,,0.0928,,0.0673,0.042,0.0782,,
N193H,,0.0801,0.0521,0.07,0.0728,0.064,,,0.074,
P94H,,0.0846,0.0419,0.0821,,0.047,0.0623,0.0761,,
P94C,,0.091,,0.0761,,0.0626,,,,
K185D,0.0729,0.0688,0.0664,,0.0711,0.0696,0.0563,,,0.0696
I110A,,0.111,,,,,,,,
F218Q,0.0626,0.0816,0.0604,0.071,,,0.0798,0.0644,,
K216E,,0.0825,0.0603,,,0.0512,,,0.0777,
V165K,,0.0619,0.0774,0.0589,0.0698,0.0522,0.0543,0.0583,0.0496,0.054
F173P,0.0648,,,0.0631,,0.0674,0.0608,,,
F173K,,,0.0431,0.0757,,,,0.0556,,
F173V,0.0642,0.0715,0.0678,0.0714,0.0565,0.0601,,0.0519,,
S209T,,0.0899,,,,0.0601,,0.0675,,
S209Q,0.0492,,,,,0.0739,0.0555,,,

# Same assay, conditions: temperature: 34 °C; time window: 0-4 h after rhamnose induction
Variant,area with substrate ENLSFQS,area with substrate ENLLFQS,area with substrate ENLQFQS,area with substrate ENLEFQS,area with substrate ENLWFQS,area with substrate ENLIFQS,area with substrate ENLTFQS
G166Y,0.0535,,,,,,
G214L,,0.0603,0.0795,,,,
D137W,0.0516,,0.0748,,,,
W199K,0.0526,0.0639,,0.0636,,,
G213P,,0.0626,,,,,
G213I,,0.0355,0.0592,0.0784,0.0453,,
L205C,,,,0.0691,0.0638,0.0672,
T114S,0.092,0.0776,,0.0828,0.0963,0.0891,
F180Y,,0.0699,0.0642,,,,
Q194D,0.0575,,0.0801,,,0.116,
P225Y,0.0687,0.0597,0.076,,0.0679,0.0824,
V210A,0.0534,0.0708,0.0555,,0.0719,,
K230R,,,,,,0.0903,
P134A,0.0633,,,,0.071,,
P134M,0.046,,,0.0438,,0.0745,
H215T,,0.0636,0.0651,,,,
I145A,,,,0.0572,,,
F187S,,,0.0644,0.0523,0.0515,0.0742,
F187V,0.0609,0.0561,,,,0.0826,
M188H,0.08,,,0.0749,,,

Variant,area with substrate ENLSFQS,area with substrate ENLLFQS,area with substrate ENLQFQS,area with substrate ENLEFQS,area with substrate ENLWFQS,area with substrate ENLIFQS,area with substrate ENLTFQS
G35Y,,,,0.0344,,,
G35F,,,,0.0578,,0.0455,
R109M,0.0703,,,,,0.0887,
L190K,,0.061,0.0436,0.0718,0.0515,0.0689,
T181N,0.0402,,,0.0644,,,
W203T,0.0483,0.0565,,0.0647,,,
S201T,,0.11,,0.0552,0.0946,0.0661,
N193H,0.0594,0.0595,,0.0567,,0.118,
P94H,0.0663,0.0684,,,0.0805,0.0802,
K185D,0.0628,,,,0.0922,,
I110A,,,0.0699,,,,
F218Q,0.0418,,0.0554,,0.06,,
K216E,0.0719,,,,,,
L235R,,,,0.0671,,,
V165K,0.0506,0.0524,0.0533,0.047,0.0503,0.0474,0.0548
F173P,0.0444,0.0535,,,,,
F173K,,,,0.063,,,
F173V,0.0562,0.0534,,0.0775,,,
S209T,,,,,0.0676,0.0978,
S209Q,,0.0657,0.0661,0.0635,0.0769,0.0964,
